The campaign covered roughly 310,000 compounds. About 11,000 (3.5%) were called active. The inconclusive results got no clear call from the source; some entries with a clear call stand among them for comparison. Calls follow the shape of the dose curve; as a rule, active = well fitted inhibition curve with a large enough effect; inconclusive = small, poorly fitted or top-dose-only effect, or effect the other way; inactive = flat fitted curve, though single readings scatter. No potency is given beside an inconclusive call; the fits are too rough.
Assay: VP16 counterscreen qHTS for inhibitors of ROR gamma transcriptional activity;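 also: Gal4-VP16 expression switched on by copper sulfate through the metallothionein promoter; nearly all actives have a fitted effect of over 50% in size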
Conditions: Drosophila S2 Gal4-VP16 UAS-luciferase, luminescence, 20 h; activity, negative = inhibition: at 53.6 µM (top of the series)
% is scaled to controls: 0 for no effect and ±100 for the full control effect; potency is read from the fitted curve at half-maximal effect; tags tell the direction and shape of the fitted curve.

Which “activity, negative = inhibition” value does the source give for `CC1Cc2cc(/C(O)=C3/C(=O)C(=O)N(CCCn4ccnc4)C3c3ccc(F)cc3)ccc2O1` (configuration not stated) here?
The value was inactive: -5.86%.

Which “activity, negative = inhibition” value does the source give for `CCc1ccccc1NC1=NCC(=O)N1C1CCCC1` here?
Its value is inactive: -2.15%.

Which “activity, negative = inhibition” value does the source give for `O=C(/C=C/c1c(F)cccc1Cl)N1CCc2ccccc2C1` here?
The value was inactive: 2.19%.

With `CC(=O)c1ccc(NC(=O)CCNC(=O)c2ccc(Cl)cc2)cc1` as the molecule, how does the “activity, negative = inhibition” value read?
Its value is inactive: -0.753%.

For `C=C1SC(Nc2c(C)cc(C)cc2C)=NC12CCCCC2`, which Potency is on record?
Its Potency is active: 0.631 µM.

For `C=C(C)CNC(=S)NNC(=O)c1ccco1`, which Potency is on record?
Its Potency is active: 5.01 µM.

With `Cc1cc(C)n(-c2nc(NCC(C)O)c3c4c(sc3n2)CCCC4)n1` (configuration not stated) as the molecule, how does the Potency read?
Its Potency is active: 1 µM.

Which “activity, negative = inhibition” value does the source give for `Cc1ccc(NC(=O)CS(=O)CC(=O)NC23CC4CC(CC(C4)C2)C3)cc1` (configuration not stated) here?
The value was inactive: -8.47%.

For `CCCCn1c(=O)n(CC(=O)Nc2c(CC)cccc2CC)c(=O)c2c1nc(CO)n2CCC`, which “activity, negative = inhibition” value is on record?
The value was inactive: -2.11%.

With `COc1ccc(S(=O)(=O)Nc2c(C)cc(C)cc2C)c2cccnc12` as the molecule, how does the “activity, negative = inhibition” value read?
The value was inactive: -2.91%.

Which Potency does the source give for `CCOC(=O)C1CCN(c2cc(=O)n(Cc3ccc(F)cc3)c(=O)[nH]2)CC1` here?
Its Potency is inconclusive [activator, single point].

Which Potency does the source give for `O=C(COC(=O)c1cccc(S(=O)(=O)N2CCN(c3ccccc3)CC2)c1)NCc1ccco1` here?
The Potency was active: 10 µM.

With `O=C(Nc1ncc(Cc2ccccc2)s1)c1cccs1` as the molecule, how does the Potency read?
The Potency was inconclusive [inhibitor, single point].

Which Potency does the source give for `Cc1ccc(C(=O)NCCSc2c(C)[nH]c3ccccc23)cc1[N+](=O)[O-]` here?
Its Potency is inconclusive [inhibitor, single point].

For `O=C(c1ccccc1)c1nn(-c2ccc(Cl)cc2)c(=O)cc1C(F)(F)F`, which Potency is on record?
The Potency was inconclusive [inhibitor, single point].

For `Cc1ccc(C(=O)O/N=C(\N)c2ccccc2)c(Cl)c1`, which Potency is on record?
The Potency was active: 8.91 µM.

For `O=C(NNC(=S)Nc1ccc(Cl)cc1)c1ccccc1OC(F)F`, which Potency is on record?
The Potency was inconclusive [inhibitor, partial curve].

With `CCN(CC)c1ccc(/C=C2/C(=O)ON=C2C)cc1` as the molecule, how does the Potency read?
The Potency was inconclusive [activator, single point].

Which Potency does the source give for `Cc1nc(Nc2ccccc2)[nH]c(=O)c1CCC(C)C` here?
The Potency was inconclusive [inhibitor, single point].

With `COc1ccccc1-n1c(SCC(=O)NCc2ccc3c(c2)OCO3)nc2cc([N+](=O)[O-])ccc21` as the molecule, how does the Potency read?
Its Potency is inconclusive [inhibitor, single point].

For `COc1ccc(CCNc2c3ccccc3nc3ccccc23)cc1OC`, which Potency is on record?
The Potency was inconclusive [inhibitor, partial curve].

For `Cc1cc(Br)ccc1NS(=O)(=O)c1c(C)[nH]c(=O)[nH]c1=O`, which “activity, negative = inhibition” value is on record?
Its value is inactive: -4.92%.

— PubChem BioAssay AID2546 (National Center for Advancing Translational Sciences (NCATS), 2010)
